Among all 310,000 compounds or so, about 2,200 (0.71%) showed an effect of 50% or more. The effect is printed as a negative number. The list shows a part of the results.

human ether-à-go-go-related gene (hERG) potassium channel, sequence (Q12809 whole entry, looked up): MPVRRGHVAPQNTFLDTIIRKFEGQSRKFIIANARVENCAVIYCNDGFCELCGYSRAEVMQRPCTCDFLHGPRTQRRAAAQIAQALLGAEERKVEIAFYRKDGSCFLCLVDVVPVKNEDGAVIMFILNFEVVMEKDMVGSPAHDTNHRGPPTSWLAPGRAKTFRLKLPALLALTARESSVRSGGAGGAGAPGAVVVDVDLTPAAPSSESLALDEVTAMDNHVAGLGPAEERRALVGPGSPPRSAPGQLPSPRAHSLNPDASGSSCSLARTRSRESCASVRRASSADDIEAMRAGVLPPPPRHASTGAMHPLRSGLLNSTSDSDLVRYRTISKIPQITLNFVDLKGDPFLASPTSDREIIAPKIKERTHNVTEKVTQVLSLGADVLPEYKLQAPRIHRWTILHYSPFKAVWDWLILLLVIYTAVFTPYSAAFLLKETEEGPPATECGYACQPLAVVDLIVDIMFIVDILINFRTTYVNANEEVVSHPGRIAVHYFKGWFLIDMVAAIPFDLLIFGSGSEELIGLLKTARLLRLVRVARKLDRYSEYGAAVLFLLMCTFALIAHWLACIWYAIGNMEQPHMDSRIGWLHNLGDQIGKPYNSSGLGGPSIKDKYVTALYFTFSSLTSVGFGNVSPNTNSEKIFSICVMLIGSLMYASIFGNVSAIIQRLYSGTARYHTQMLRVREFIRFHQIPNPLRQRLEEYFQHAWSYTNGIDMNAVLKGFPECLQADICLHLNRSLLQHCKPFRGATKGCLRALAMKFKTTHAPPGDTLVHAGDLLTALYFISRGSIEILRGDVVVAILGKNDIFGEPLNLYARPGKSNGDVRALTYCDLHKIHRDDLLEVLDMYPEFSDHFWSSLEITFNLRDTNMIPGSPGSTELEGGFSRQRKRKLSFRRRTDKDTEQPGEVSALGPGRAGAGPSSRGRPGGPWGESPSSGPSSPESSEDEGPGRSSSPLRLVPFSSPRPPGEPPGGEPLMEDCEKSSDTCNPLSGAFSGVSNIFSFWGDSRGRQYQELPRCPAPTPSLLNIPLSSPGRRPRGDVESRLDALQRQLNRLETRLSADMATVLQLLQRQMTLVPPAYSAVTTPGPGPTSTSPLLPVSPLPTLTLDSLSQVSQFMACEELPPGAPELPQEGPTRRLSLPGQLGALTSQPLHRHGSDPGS

The assay concerns the target human ether-à-go-go-related gene (hERG) potassium channel (human, UniProt Q12809). In words: primary screen, population patch clamp on CHO cells stably expressing hERG.
`N#Cc1c(-c2cccs2)nc(SCC(=O)c2ccc(Br)cc2)[nH]c1=O`: the “hERG current change (%, negative = inhibition) at 1uM” value is 10.3%.

With `O=C(COC(=O)c1cccc(S(=O)(=O)NCc2ccccc2)c1)Nc1ccccc1OC(F)F`, the “hERG current change (%, negative = inhibition) at 1uM” value amounted to 12.5%.

Turning to `COc1cc(C(=O)c2nccc3cc(OC)c(OC)cc23)c([N+](=O)[O-])cc1OC`, the “hERG current change (%, negative = inhibition) at 1uM” value turned out to be 4.84%.

`O=C(c1ccccc1)N(Cc1nc2ccccc2c(=O)[nH]1)C1CCCC1`: the “hERG current change (%, negative = inhibition) at 1uM” value is given as 9.24%.

As for `Cc1ccc(CNC(=O)c2ccc[nH]2)cc1`, the “hERG current change (%, negative = inhibition) at 1uM” value worked out at 3.06%.

Turning to `O=C(Nc1ccc(Cl)cc1)C1c2cccc[n+]2CC(=O)N1Cc1ccc2c(c1)OCO2.[I-]` (stereo not shown), the “hERG current change (%, negative = inhibition) at 1uM” value was -2.51%.

For the molecule `COc1ccc(NC(=O)Nc2ccc(OC)cc2)cc1`, the “hERG current change (%, negative = inhibition) at 1uM” value is -4.01%.

`Clc1ccc(-c2ccnc(-n3cccc3)n2)s1`: the “hERG current change (%, negative = inhibition) at 1uM” value stood at 13.5%.

For `C=CCn1c(CCNC(=O)c2cccs2)nnc1SCC(=O)Nc1cccc(C(C)=O)c1`, the “hERG current change (%, negative = inhibition) at 1uM” value worked out at 5.75%.

In the case of `COC(=O)CC#N`, the “hERG current change (%, negative = inhibition) at 1uM” value worked out at 9.76%.

Regarding `O=C(NCCCO)C(=O)c1c(-c2ccccc2)cc2ccccn12`, the “hERG current change (%, negative = inhibition) at 1uM” value is given as 15%.

As to `CCn1c(SCC(=O)Nc2ccc(NC(C)=O)cc2)nnc1C1CC1`, the “hERG current change (%, negative = inhibition) at 1uM” value is 13.7%.

Turning to `CCOc1ccc(NC(=O)CCC(=O)c2ccc(F)cc2)cc1`, the “hERG current change (%, negative = inhibition) at 1uM” value turned out to be 13.3%.

Turning to `Cc1cc(C)c(S(=O)(=O)N2CCN(C(=O)N3CCOCC3)CC2)c(C)c1`, the “hERG current change (%, negative = inhibition) at 1uM” value is given as 13.6%.

With `COc1cccc(/C=N/Nc2ncc(C(F)(F)F)cc2Cl)c1O`, the “hERG current change (%, negative = inhibition) at 1uM” value is on record as 19.2%.

On to `Cc1ccc(-c2cc(C(=O)Nc3cnn(C45CC6CC(CC(C6)C4)C5)c3)no2)cc1`, for which the “hERG current change (%, negative = inhibition) at 1uM” value turned out to be 5.94%.

In the case of `CCOC(=O)c1c(C)n(C)c2ccc(OC)c([N+](=O)[O-])c12`, the “hERG current change (%, negative = inhibition) at 1uM” value was 6.83%.

Regarding `COC(=O)COn1c(SC(C)C)nc2ccccc2c1=O`, the “hERG current change (%, negative = inhibition) at 1uM” value is reported as -3.55%.

On to `Cn1ncc2c(Nc3ccc4ccccc4c3)ncnc21`, for which the “hERG current change (%, negative = inhibition) at 1uM” value is listed as 9.92%.

Consider `O=C1NC(NS(=O)(=O)c2ccccc2)(C(F)(F)F)C(=O)N1c1ccc(F)cc1` (stereo not shown), for which the “hERG current change (%, negative = inhibition) at 1uM” value was determined as 7.82%.

For the molecule `CCCc1c(C)nc2c(Br)cccc2c1Cl`, the “hERG current change (%, negative = inhibition) at 1uM” value is given as 9.82%.

Consider `COC(C/C=C/C(=O)[C@@H](C)OCc1ccccc1)OC`, for which the “hERG current change (%, negative = inhibition) at 1uM” value worked out at 12%.

`O=c1oc(Nc2ccc(F)cc2)nc2ccccc12`: the “hERG current change (%, negative = inhibition) at 1uM” value is 4.75%.

For the molecule `O=S(=O)(c1ccc(Br)s1)N1CCN(CCOc2ccccc2)CC1`, the “hERG current change (%, negative = inhibition) at 1uM” value stood at 5.99%.

Turning to `COc1ccc(-c2c(C#N)c(N)nc3sc(C(=O)c4ccccc4)c(N)c23)cc1`, the “hERG current change (%, negative = inhibition) at 1uM” value worked out at 7.67%.

With `CN(Cc1ccon1)C(=O)C1CCC(=O)N(Cc2ccc(Cl)cc2)C1` (stereo not shown), the “hERG current change (%, negative = inhibition) at 1uM” value is recorded as -20.6%.

As for `COc1cc(OC)c(NC(=O)C2CC(=O)N(c3ccc4c(c3)OCCO4)C2)cc1Cl` (stereo not shown), the “hERG current change (%, negative = inhibition) at 1uM” value stood at 5.97%.

Take `Cc1ccc(C(=O)NCC(=O)OCC(=O)NC2CCCCCCC2)cc1`: the “hERG current change (%, negative = inhibition) at 1uM” value was -4.25%.

Consider `Cc1ccc2nc(-c3ccccc3NC(=O)CCC(=O)O)c(=O)[nH]c2c1`, for which the “hERG current change (%, negative = inhibition) at 1uM” value was determined as 13.1%.

On to `CCO[C@@H]1OC(C(=O)N2CCN(Cc3ccc4c(c3)OCO4)CC2)=C[C@H](c2ccc(Br)cc2)[C@H]1CCCO`, for which the “hERG current change (%, negative = inhibition) at 1uM” value amounted to 1.19%.

In the case of `COc1cc(Br)c(CNc2cc(C)ccc2C)cc1OC.O=C(O)C(=O)O`, the “hERG current change (%, negative = inhibition) at 1uM” value worked out at 14%.

As for `C/C(=N\NC(=O)c1cc([N+](=O)[O-])cc([N+](=O)[O-])c1)c1ccco1`, the “hERG current change (%, negative = inhibition) at 1uM” value was found to be 8.74%.

Turning to `NS(=O)(=O)c1cccc(NC(=O)COC(=O)CC2CC3CCC2C3)c1` (stereo not shown), the “hERG current change (%, negative = inhibition) at 1uM” value is reported as 1.5%.

As for `CC(=O)Nc1ccc(S(=O)(=O)N2CCN(c3nc(C)cc(C)n3)CC2)cc1`, the “hERG current change (%, negative = inhibition) at 1uM” value was determined as 14.9%.

For the molecule `Cc1ccc(N2C(=O)CSC23C(=O)Nc2ccccc23)cc1` (stereo not shown), the “hERG current change (%, negative = inhibition) at 1uM” value worked out at 2.82%.

`CC(=O)n1cc([C@@H]2C=C(C(=O)N3CCN(Cc4ccc5c(c4)OCO5)CC3)O[C@H](OCc3ccc(CO)cc3)C2)c2ccccc21`: the “hERG current change (%, negative = inhibition) at 1uM” value turned out to be 6.66%.

As to `Cn1nnnc1SC(C(=O)Nc1cccc(C(F)(F)F)c1)c1ccccc1` (stereo not shown), the “hERG current change (%, negative = inhibition) at 1uM” value turned out to be 9.74%.

Turning to `CC(=O)Nc1ccc(NC(=O)CN(c2ccccc2Cl)S(C)(=O)=O)cc1`, the “hERG current change (%, negative = inhibition) at 1uM” value was found to be 10%.

`CC(C)c1[nH]nc2c1C(c1ccc(OC(=O)c3ccco3)cc1)C(C#N)=C(N)O2` (stereo not shown): the “hERG current change (%, negative = inhibition) at 1uM” value was 13.1%.

`N#Cc1cccc(NC(=O)CN2CCCCCC2)c1`: the “hERG current change (%, negative = inhibition) at 1uM” value stood at 8.66%.

As to `CC(=O)N1CC(c2ccccc2)C(c2ccc(Cl)cc2)=N1` (stereo not shown), the “hERG current change (%, negative = inhibition) at 1uM” value is listed as 11.6%.

As for `O=C(Nc1ccc2c(c1)OCO2)C1CCCCC1`, the “hERG current change (%, negative = inhibition) at 1uM” value was -1.12%.

On to `CC(C)(C)c1ccccc1OCCOCCNCc1ccccc1.O=C(O)C(=O)O`, for which the “hERG current change (%, negative = inhibition) at 1uM” value amounted to 6.67%.

The values above are taken from publication PMC4336329 (PLoS ONE, 2015).
